Laboratory results taken from the RNAGym collection of RNA variant scans (doi:10.1101/gad.245936.114).
This sample is rich in variants without activity.

B1: tRNA (parent)
chain: CUCUCGGUAGCCAAGUUGGUUUAAGGCGCAAGACUUUAAUUUAUCACUACGAAAUCUUGAGAUCGGGCGUUCGACUCGCCCCCGGGAGAUUUUUUCCUCGAGCAA

Variants of: B1
Assay: nonsense suppression (GFP-seq) (ratio to wild type); higher = more function; SUP4oc tRNA, yeast GFP reporter sort-seq
Method in brief: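 Nonsense suppression (GFPSEQ) is the median GFP/RFP ratio of each sorting bin, weighted by the variant's estimated share of cells in that bin and expressed relative to the unmutated parent tRNA. Yeast strains carried genome-integrated variants of an ochre-suppressor tRNA from a library with ~3% random mutations, plus a galactose-driven GFP ochre reporter and RFP, and were grown in raffinose/galactose medium containing 80 mg/L adenine. Cells were sorted into GFP/RFP bins, each bin was Illumina-sequenced (phred ≥30), and variants were kept only with ≥100 reads and ≥30 cells.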

Compared with A9G A13G U22G C34A C83G, A9C A54U is higher in nonsense suppression: at most 0.026 for the first, 1.21 for the second.

A9C G18U U57C C68A C79A and A9U G25C U55G U58C G61A cannot be ordered by nonsense suppression: at most 0.026 for the first, at most 0.026 for the second.

U8G U21G A30G C72A G78U and A9U G86U G88A cannot be ordered by nonsense suppression: at most 0.026 for the first, at most 0.026 for the second.

U8G U22G G85U A89U and A9C A54G G78A G88U A89C cannot be ordered by nonsense suppression: at most 0.026 for the first, at most 0.026 for the second.

A9U G25U and A9C G26U G28C C64U cannot be ordered by nonsense suppression: at most 0.026 for the first, at most 0.026 for the second.

A9G G78A and A9G G78C cannot be ordered by nonsense suppression: at most 0.026 for the first, at most 0.026 for the second.

A9G G66C U76A G84U and A9U G10U A14U U22C G59A cannot be ordered by nonsense suppression: at most 0.026 for the first, at most 0.026 for the second.

A9G G26C and A9G C80A cannot be ordered by nonsense suppression: at most 0.026 for the first, at most 0.026 for the second.

A9C G18U A24G and A9U C29A A30C U63G cannot be ordered by nonsense suppression: at most 0.026 for the first, at most 0.026 for the second.

Going from A9G G10U U70C A89U to A9G A54C, the nonsense suppression rises from at most 0.026 to 0.207.

A9G G25A C83G G85U and A9G C64G cannot be ordered by nonsense suppression: at most 0.026 for the first, at most 0.026 for the second.

A9C A14C U58G and A9C A23U U57G G86U cannot be ordered by nonsense suppression: at most 0.026 for the first, at most 0.026 for the second.

A9G C34G U71G C75G and A9C U16G U35A U58C A62C cannot be ordered by nonsense suppression: at most 0.026 for the first, at most 0.026 for the second.

A9U C34G A54G and A9G C81A cannot be ordered by nonsense suppression: at most 0.026 for the first, at most 0.026 for the second.

A9U C12G G15A G88C and A9G U55A cannot be ordered by nonsense suppression: at most 0.026 for the first, at most 0.026 for the second.

Going from A9G U55G to A9G U55C, the nonsense suppression rises from at most 0.026 to 0.245.

A9U C64G G69U and A9U G69U U76C cannot be ordered by nonsense suppression: at most 0.026 for the first, at most 0.026 for the second.

A9G U57G U58A C64G C77U and A9U A23U C27A G84C cannot be ordered by nonsense suppression: at most 0.026 for the first, at most 0.026 for the second.

Going from A9U G84A to A9U C11U G32C C34G A54U, the nonsense suppression falls from 0.138 to at most 0.026.

A9C A24G and A9G G32A U58G G85U cannot be ordered by nonsense suppression: at most 0.026 for the first, at most 0.026 for the second.

Going from A9C A13C to A9C U22A, the nonsense suppression falls from 1.15 to 0.709.

Going from A9G C72U to A9G G19A A33U A60G, the nonsense suppression falls from 0.0591 to at most 0.026.

A9C G26U C75A A89U and A9U G15C U22A cannot be ordered by nonsense suppression: at most 0.026 for the first, at most 0.026 for the second.

Going from A9G C27U to A9U G10A G61A, the nonsense suppression falls from 0.0421 to at most 0.026.

First: A9G U16G A23G A30U C64U
Second: A9C C29U
The nonsense suppression of the first is lower: at most 0.026 for the first, 0.751 for the second.

A9C U21C A62C C77A and A9U U21G U22C cannot be ordered by nonsense suppression: at most 0.026 for the first, at most 0.026 for the second.

A9G G15C U22G and A9G U70A cannot be ordered by nonsense suppression: at most 0.026 for the first, at most 0.026 for the second.

A9G A23U U55A and A9C A31G C68G G86A cannot be ordered by nonsense suppression: at most 0.026 for the first, at most 0.026 for the second.

First: A9C G19C U63C U71A C80G
Second: A9G G61A A87G
The nonsense suppression of the first is lower: at most 0.026 for the first, 0.188 for the second.

A9U A23U C29G U63C U70C and A9U C11G C68A cannot be ordered by nonsense suppression: at most 0.026 for the first, at most 0.026 for the second.

A9U A31G A60C C81A and A9C C11U G61C C64A G73A cannot be ordered by nonsense suppression: at most 0.026 for the first, at most 0.026 for the second.

A9U C11G A30G C80G and A9G U35A G61C cannot be ordered by nonsense suppression: at most 0.026 for the first, at most 0.026 for the second.

A9C U22A C56U G88C and U8G U55A U71A cannot be ordered by nonsense suppression: at most 0.026 for the first, at most 0.026 for the second.

A9C U70G and A9U G26U G65C cannot be ordered by nonsense suppression: at most 0.026 for the first, at most 0.026 for the second.

A9C G10C C11G A24G A31G A54C and A9C C68G U71G cannot be ordered by nonsense suppression: at most 0.026 for the first, at most 0.026 for the second.

Compared with A9C U63C, A9G G61U C75G is higher in nonsense suppression: 0.202 for the first, 1.12 for the second.

U8G U58A G61A C77A and U8G U57C U76A G88U cannot be ordered by nonsense suppression: at most 0.026 for the first, at most 0.026 for the second.

A9C U16A A24U A31U U57G C64G C68A G88C and A9G G10U C12A G65C cannot be ordered by nonsense suppression: at most 0.026 for the first, at most 0.026 for the second.

First: A9C U16C C56G C81A
Second: A9G G61U
The nonsense suppression of the first is lower: at most 0.026 for the first, 1.1 for the second.

A9G C12A and A9G C12G cannot be ordered by nonsense suppression: at most 0.026 for the first, at most 0.026 for the second.

Compared with A9U A14G, A9C A60C is higher in nonsense suppression: at most 0.026 for the first, 0.0924 for the second.

Compared with A9G A31G, A9U C29U A31U is lower in nonsense suppression: 0.259 for the first, at most 0.026 for the second.

A9C A14C A23U U35G A54G and A9G C11A U16C C34G A74C cannot be ordered by nonsense suppression: at most 0.026 for the first, at most 0.026 for the second.

A9G U17A C27U G32U U57A and A9U C12U A14C A33C cannot be ordered by nonsense suppression: at most 0.026 for the first, at most 0.026 for the second.

A9C G32U U58C and A9G C29U G61C G65A cannot be ordered by nonsense suppression: at most 0.026 for the first, at most 0.026 for the second.

First: A9G A31U U55C U57G
Second: A9G U16A U55C
The nonsense suppression of the first is lower: at most 0.026 for the first, 0.188 for the second.

A9G U20G A23U and A9C A14G U55A G61A cannot be ordered by nonsense suppression: at most 0.026 for the first, at most 0.026 for the second.

A9U A23U and A9U A23G cannot be ordered by nonsense suppression: at most 0.026 for the first, at most 0.026 for the second.

Compared with A9G A14G, A9C A14C A74U is lower in nonsense suppression: 0.0311 for the first, at most 0.026 for the second.

A9G U70A G86C and A9U C11U C27U A31G G69U cannot be ordered by nonsense suppression: at most 0.026 for the first, at most 0.026 for the second.

A9G A14U U63C G65A A89U and A9C A30G G69C cannot be ordered by nonsense suppression: at most 0.026 for the first, at most 0.026 for the second.

A9G U76G C80G and U8G U58A G59A U76C cannot be ordered by nonsense suppression: at most 0.026 for the first, at most 0.026 for the second.

A9G U17C G25U C83A and A9U A30G G69A cannot be ordered by nonsense suppression: at most 0.026 for the first, at most 0.026 for the second.

A9C G26A and A9G U57G U58A C80A cannot be ordered by nonsense suppression: at most 0.026 for the first, at most 0.026 for the second.

A9G C11G G66A C72U G78A and A9G U17C A30U U57C cannot be ordered by nonsense suppression: at most 0.026 for the first, at most 0.026 for the second.

First: A9G C29U C75G
Second: A9G A33C G66U
The nonsense suppression of the first is higher: 0.252 for the first, at most 0.026 for the second.

A9C U21A A31G U71C and A9G A23G C29G U57G cannot be ordered by nonsense suppression: at most 0.026 for the first, at most 0.026 for the second.

A9C A13U G18C and A9U G28C A33G cannot be ordered by nonsense suppression: at most 0.026 for the first, at most 0.026 for the second.

A9C G66A and A9U G25U A62G cannot be ordered by nonsense suppression: at most 0.026 for the first, at most 0.026 for the second.

A9G U55G G59C C75U C77A A87C and A9U U20G A31C C79A cannot be ordered by nonsense suppression: at most 0.026 for the first, at most 0.026 for the second.

A9G A13C C34A G85A and A9U G25A A30U cannot be ordered by nonsense suppression: at most 0.026 for the first, at most 0.026 for the second.

A9C C11U A60G and A9G U55C G86U cannot be ordered by nonsense suppression: at most 0.026 for the first, at most 0.026 for the second.

A9C A54U G65U and A9C U57C C82U cannot be ordered by nonsense suppression: at most 0.026 for the first, at most 0.026 for the second.

A9U G25U A54U G61C U63A G85A and A9U G61A G88U cannot be ordered by nonsense suppression: at most 0.026 for the first, at most 0.026 for the second.

A9U G32U and A9U A74U C80A cannot be ordered by nonsense suppression: at most 0.026 for the first, at most 0.026 for the second.

A9U A31G C80A and A9U G19C G25U C29U G65U U76C cannot be ordered by nonsense suppression: at most 0.026 for the first, at most 0.026 for the second.

A9G G18C C34G U76C and A9U G32C A62G cannot be ordered by nonsense suppression: at most 0.026 for the first, at most 0.026 for the second.

A9U C77U C82A and A9C G59U cannot be ordered by nonsense suppression: at most 0.026 for the first, at most 0.026 for the second.

A9C C11A U16G A23G U63A G73A and A9G C34G A54G G73C cannot be ordered by nonsense suppression: at most 0.026 for the first, at most 0.026 for the second.

A9C G28C U71A and A9G C11U C80G cannot be ordered by nonsense suppression: at most 0.026 for the first, at most 0.026 for the second.

A9G G61C G65U and A9C G26U G59A cannot be ordered by nonsense suppression: at most 0.026 for the first, at most 0.026 for the second.

First: A9C A23G
Second: A9C G25C A30C C34A
The nonsense suppression of the first is higher: 0.0661 for the first, at most 0.026 for the second.

A9G U35C C79G and A9G U35C C79U cannot be ordered by nonsense suppression: at most 0.026 for the first, at most 0.026 for the second.

A9G A14U A54U U55G G86U and A9G G10C U58C cannot be ordered by nonsense suppression: at most 0.026 for the first, at most 0.026 for the second.

A9U A24U A89C and A9G G10U A13C G69U cannot be ordered by nonsense suppression: at most 0.026 for the first, at most 0.026 for the second.

A9U G32C A62C U76C C79U and U8G U21G G85A cannot be ordered by nonsense suppression: at most 0.026 for the first, at most 0.026 for the second.

Compared with A9G G15U, A9G G15C is higher in nonsense suppression: 0.0374 for the first, 0.173 for the second.

A9U A14G U16G C27A and A9C A14U C29G A30C G32A A33G C34A U35C U76C cannot be ordered by nonsense suppression: at most 0.026 for the first, at most 0.026 for the second.

A9G C27U U70C G84C and A9G U55G A89C cannot be ordered by nonsense suppression: at most 0.026 for the first, at most 0.026 for the second.

A9G C12U A13U A23C and A9C G59C G61C G84A cannot be ordered by nonsense suppression: at most 0.026 for the first, at most 0.026 for the second.

A9C G88C and A9C C12A U22C C75A cannot be ordered by nonsense suppression: at most 0.026 for the first, at most 0.026 for the second.

Compared with A9C C29G U76A, A9C G73A is higher in nonsense suppression: at most 0.026 for the first, 0.215 for the second.

U8G U58C A60U G66A G86A and A9G A13C A33C cannot be ordered by nonsense suppression: at most 0.026 for the first, at most 0.026 for the second.

Variant A9G C34G U57C U58C C81U G88U has a nonsense suppression of at most 0.026.
